The text below walks through data of PMC4336329 (PLoS ONE, 2015).

Molecules are shown by their SMILES. Among all 310,000 compounds or so, about 14,000 (4.5%) showed an effect of 50% or more. The effect is printed as a negative number. Some of the results follow.
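Also: peak tail current of the secondary pulse compared with the same well before compound.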

Sequence of human ether-à-go-go-related gene (hERG) potassium channel (Q12809 whole entry, looked up): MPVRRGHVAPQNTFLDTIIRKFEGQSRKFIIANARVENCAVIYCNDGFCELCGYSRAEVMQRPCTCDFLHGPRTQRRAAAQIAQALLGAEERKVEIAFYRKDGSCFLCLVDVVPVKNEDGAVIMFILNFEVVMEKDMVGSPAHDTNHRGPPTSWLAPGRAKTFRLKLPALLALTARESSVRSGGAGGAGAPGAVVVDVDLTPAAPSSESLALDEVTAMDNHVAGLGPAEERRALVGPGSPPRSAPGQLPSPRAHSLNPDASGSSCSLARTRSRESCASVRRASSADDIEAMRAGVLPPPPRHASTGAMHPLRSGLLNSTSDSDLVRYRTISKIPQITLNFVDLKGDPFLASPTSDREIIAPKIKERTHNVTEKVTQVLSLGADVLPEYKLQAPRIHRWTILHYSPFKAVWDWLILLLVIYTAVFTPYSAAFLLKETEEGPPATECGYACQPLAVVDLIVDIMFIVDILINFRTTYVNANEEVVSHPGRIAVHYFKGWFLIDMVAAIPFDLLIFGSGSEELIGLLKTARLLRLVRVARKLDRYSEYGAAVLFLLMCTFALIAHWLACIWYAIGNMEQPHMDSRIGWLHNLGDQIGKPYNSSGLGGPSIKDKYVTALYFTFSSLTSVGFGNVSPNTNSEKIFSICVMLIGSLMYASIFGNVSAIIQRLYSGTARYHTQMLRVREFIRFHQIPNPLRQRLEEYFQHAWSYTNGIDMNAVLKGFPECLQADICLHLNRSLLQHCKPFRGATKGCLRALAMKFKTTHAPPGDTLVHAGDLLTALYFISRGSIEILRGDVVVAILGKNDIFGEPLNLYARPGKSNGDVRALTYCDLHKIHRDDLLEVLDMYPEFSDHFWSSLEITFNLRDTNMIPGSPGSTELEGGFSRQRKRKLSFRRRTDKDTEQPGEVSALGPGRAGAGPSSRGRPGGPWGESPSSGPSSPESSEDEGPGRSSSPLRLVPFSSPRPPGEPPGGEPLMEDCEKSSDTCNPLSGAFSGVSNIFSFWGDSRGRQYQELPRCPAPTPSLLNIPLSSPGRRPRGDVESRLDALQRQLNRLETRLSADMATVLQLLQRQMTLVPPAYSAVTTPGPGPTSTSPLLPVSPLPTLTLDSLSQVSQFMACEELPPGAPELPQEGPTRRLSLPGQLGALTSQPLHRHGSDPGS

The test concerns the target human ether-à-go-go-related gene (hERG) potassium channel (human, UniProt Q12809). Kind of test: primary screen, population patch clamp on CHO cells stably expressing hERG.
As to `CNC(=O)COC(=O)c1ccc(NS(=O)(=O)c2ccc3c(c2)OCCO3)cc1`, the “hERG current change (%, negative = inhibition) at 10uM” value turned out to be 1.75%. Then `O=C1CCCc2c1[nH]c1ccc(CN3CCCCC3)cc21`, with -9.21%.

Consider `O=C(c1ccco1)N1CCN(c2ncnc3c2oc2ccccc23)CC1`, for which the “hERG current change (%, negative = inhibition) at 10uM” value is on record as -55.4%. With `COc1ccc(C(CNC(=O)/C=C/c2c(Cl)nc3ccccn23)N(C)C)cc1` (centres unmarked) the figure was 4.23%; with `COc1ccc(N(C(=O)CCl)C(C(=O)NC2CCCCC2)c2cccnc2)cc1` (centres unmarked), 0.893%. Then `O=c1[nH]c(Cc2ccccc2)nc2c1oc1ccccc12`, with 15.7%. With `CCN(CC)c1ccc(/C=N/N=C(N)N)c(O)c1` the figure was -14%; with `N#CC1=C(N)Oc2c(c(=O)oc3ccccc23)C1c1cccnc1` (centres unmarked), 5.62%; with `O=c1c2ccc(Cl)cc2[nH]c(=S)n1CCCN1CCOCC1`, -22.6%.

For `COCCNC(=O)c1ccc2c(=O)n(Cc3ccco3)c(SCC(=O)Nc3ccc(OC)cc3OC)nc2c1`, the “hERG current change (%, negative = inhibition) at 10uM” value worked out at 1.92%. Then `O=C(O)C1CCN(S(=O)(=O)c2ccc(N3CCC(O)CC3)c([N+](=O)[O-])c2)CC1`, with 22%; and `O=C(NCCN1CCOCC1)c1cc(-c2ccccc2)on1`, with 0.876%; and `O=C(NCc1ccco1)C1CCCN(S(=O)(=O)c2ccc(-n3cnnn3)cc2)C1` (centres unmarked), with -61.8%. `CC1=NN(c2ccccc2)C(=O)/C1=C\c1ccc(Br)s1`: the “hERG current change (%, negative = inhibition) at 10uM” value worked out at 12.1%. For `CCCCN(CCCC)CCNC(=O)c1ccc2nc(-c3ccccc3NC(C)=O)c(=O)[nH]c2c1`, the “hERG current change (%, negative = inhibition) at 10uM” value turned out to be 24.4%. With `COc1cc2c(c(OC)c1OC)C(=O)CC2` the figure was 15.6%; with `Cc1ccc(C2C3CSCC=C3C(C#N)=C(N)C2(C#N)C#N)cc1` (centres unmarked), -26.7%. Then `Cc1ccc(C23CC4CC(CC(C(=O)N5CCOCC5)(C4)C2)C3)cc1`, with -20.3%; and `O=C(c1nc2nc(-c3ccccc3)cc(C(F)(F)F)n2n1)N1CCOCC1`, with 16.4%. With `COc1ccccc1NC(=O)CSCc1cc(=O)n2c(C)csc2n1` the figure was 13.5%. On to `O=C(c1ccccc1)c1nc2c(n1O)CCCCC2`, for which the “hERG current change (%, negative = inhibition) at 10uM” value is 21.9%.

For `CCCCCOc1ccc(/C(C)=N/NC2=NCCN2)cc1`, the “hERG current change (%, negative = inhibition) at 10uM” value was -39.8%. Consider `CCCN1C(=O)c2ccc(C(=O)Nc3cc(C)on3)cc2C1=O`, for which the “hERG current change (%, negative = inhibition) at 10uM” value came out at 5.87%. With `O=C(NCc1cccnc1)c1ccc(COc2ccc3c(c2)CCC3)o1` the figure was -31.3%.

Turning to `Oc1cccc(C2c3[nH]c4ccccc4c3CCN2Cc2ccoc2)c1` (centres unmarked), the “hERG current change (%, negative = inhibition) at 10uM” value is reported as -29.6%. Then `O=c1oc2cc(O)ccc2c2c1CCCC2`, with -21.2%; and `Cc1cccc(C)c1NC(=O)CSc1nnc(NC(=O)CN2CCOCC2)s1`, with 8.19%; and `FC(F)(F)C1=CC(c2ccc(Cl)cc2)=NCCN1`, with -16.1%.

Take `COC(=O)c1c(C(=O)OC)c(-c2ccccc2)n2c1CS(=O)(=O)C2`: the “hERG current change (%, negative = inhibition) at 10uM” value is reported as 8.64%. With `O=c1[nH]c2ccc(S(=O)(=O)Nc3ccc(-c4nnc5n4CCCCC5)cc3)cc2o1` the figure was 13.4%; with `CCc1ccc(N2CCN(CCNC(=O)Nc3ccc(OC)cc3)CC2)cc1`, -29.9%; with `Cc1cccc(NC(=O)c2cc(-c3cc(C)ccc3O)n[nH]2)c1`, 8.79%. Then `C=CCOC(=O)C1=C[C@H](C2CC2)[C@@H](CCCO)[C@H](OCC)O1`, with 10.3%; and `COc1ccc(N=C2S/C(=C\c3ccco3)C(=O)N2CC(C)C)cc1`, with 18.4%; and `COc1ccc(OCC(=O)NCc2ccc(Cl)cc2)cc1`, with 1.55%. With `Cc1oc2c(c(C)cc3oc(=O)c(CC(=O)N[C@@H](CC(C)C)C(=O)O)c(C)c32)c1C` the figure was 15.8%; with `CC(C)CC(COCc1cccc(Cl)c1)N1CCN(C(=O)c2cccc(C(F)(F)F)c2)CCC1=O` (centres unmarked), -27.4%. As to `CCOC(=O)N1CCN(C(=O)Cn2nc(-c3ccc(Cl)cc3)ccc2=O)CC1`, the “hERG current change (%, negative = inhibition) at 10uM” value is recorded as -18.8%. On to `CN(C)Cc1c(C(=O)N/N=C/c2cccc(OCc3ccccc3)c2)nnn1-c1nonc1N`, for which the “hERG current change (%, negative = inhibition) at 10uM” value was 10.9%. Consider `CCC(CC)C(=O)Nc1cc(=O)n(C)c(=O)n1C`, for which the “hERG current change (%, negative = inhibition) at 10uM” value stood at 7.64%. Then `CN=c1c([N+](=O)[O-])nn(-c2ccc3c(c2)OCCO3)n1O`, with 0.135%; and `NC(=O)CC[C@H](NC(=O)[C@H](Cc1ccccc1)n1c(=O)[nH]c2ccccc2c1=O)C(=O)N1CCC[C@H]1C(=O)O`, with 2.23%. Then `COc1ccccc1C(=O)NC1CC2CCC(C1)N2Cc1ccccc1` (centres unmarked), with -20.4%; and `Cc1ccc(NC(=O)Nc2ccccc2)c(Br)c1`, with -1.55%.
